Measured values reported in the supplement of paper PMC3334620.
In all, about 33,000 sequences were measured (“E-score (-0.5 to 0.5)”: median about -0.021, highest 2% from about 0.32 on). The list shows a part of the results.

target: T1, Zap1 (UniProt P47043); test: PBM E-score (8-mer binding enrichment) (E-score (-0.5 to 0.5)); higher = stronger / more preferred TF binding; most listed sequences are background and not binding sites; conditions: protein concentration: 200 nM; construct: GST-full length
T1 sequence: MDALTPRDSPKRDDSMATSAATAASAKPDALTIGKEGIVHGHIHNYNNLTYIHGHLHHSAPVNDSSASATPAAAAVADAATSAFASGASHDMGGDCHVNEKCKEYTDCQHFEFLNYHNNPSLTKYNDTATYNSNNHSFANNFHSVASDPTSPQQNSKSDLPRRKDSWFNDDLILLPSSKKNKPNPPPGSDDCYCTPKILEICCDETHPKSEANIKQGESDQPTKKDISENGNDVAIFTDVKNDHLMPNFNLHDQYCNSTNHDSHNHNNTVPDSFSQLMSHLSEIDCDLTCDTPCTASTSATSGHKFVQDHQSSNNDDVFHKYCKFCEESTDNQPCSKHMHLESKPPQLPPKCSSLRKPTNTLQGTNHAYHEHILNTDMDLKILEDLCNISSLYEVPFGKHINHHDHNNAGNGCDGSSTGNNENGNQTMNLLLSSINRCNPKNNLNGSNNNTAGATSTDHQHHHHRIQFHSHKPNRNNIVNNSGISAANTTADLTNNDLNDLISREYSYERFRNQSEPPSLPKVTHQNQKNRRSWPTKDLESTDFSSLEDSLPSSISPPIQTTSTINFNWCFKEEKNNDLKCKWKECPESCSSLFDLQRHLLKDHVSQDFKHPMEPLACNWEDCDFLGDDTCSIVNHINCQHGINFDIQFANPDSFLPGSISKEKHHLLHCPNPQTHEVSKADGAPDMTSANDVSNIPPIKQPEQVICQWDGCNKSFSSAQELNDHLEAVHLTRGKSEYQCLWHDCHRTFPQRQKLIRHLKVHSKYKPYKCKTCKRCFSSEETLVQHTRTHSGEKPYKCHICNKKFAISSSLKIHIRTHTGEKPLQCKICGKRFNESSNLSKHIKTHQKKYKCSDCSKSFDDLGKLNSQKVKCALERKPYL
Procedure, shortened: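 E-scores (a modified Wilcoxon-Mann-Whitney statistic) were assigned by the Universal PBM Analysis Suite to every ungapped eight-base word pooled with its reverse complement. The input came from universal all-10-mer Agilent arrays made double-stranded by primer extension and probed with GST-tagged yeast transcription factors at about 100-200 nM. Fluorescent anti-GST detected bound protein, and masliner normalised the scans.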

| Sequence | PBM E-score |
| --- | --- |
| CTTTGGGC | -0.0895 |
| CAACGCTA | -0.148 |
| CGCAACCA | 0.283 |
| GACCGTGA | 0.199 |
| AAAGCAAA | 0.116 |
| CACCCATC | 0.0232 |
| CTGTGGCC | -0.153 |
| AGCTGTTC | -0.11 |
| CAATTAAG | 0.142 |
| AAACAGGT | 0.135 |
| AATCAGGT | 0.189 |
| GAGCCAAA | 0.0309 |
| TCAACTCA | -0.052 |
| AAGTTCAA | -0.0253 |
| AATCTCCC | -0.167 |
| AGCTACCA | 0.0544 |
| GATTTGCC | -0.16 |
| CTATAAAG | -0.0295 |
| CCCTTTGA | -0.0249 |
| ATATAACC | 0.456 |
| GCCGCACA | -0.122 |
| GCAGCCCA | -0.303 |
| AAACCTAG | 0.051 |
| AAAATATA | 0.233 |
| AGTTTGGA | 0.0365 |

| Sequence | PBM E-score |
| --- | --- |
| ATGCAAGG | -0.18 |
| GCCAGGAC | -0.149 |
| TAGGGACA | 0.0791 |
| AAGAAGGG | 0.0894 |
| GGAAGAAA | 0.00274 |
| CCATATAA | 0.175 |
| AGCGTGCG | -0.101 |
| GTAGAAGA | -0.0718 |
| CATTTAGC | 0.00568 |
| AATACGAA | 0.0771 |
| CCGCCCTA | -0.222 |
| AACAGCTA | -0.123 |
| GAAGAGAC | -0.152 |
| CACAACCC | 0.414 |
| GCAAAGGC | -0.323 |
| CACATAAG | -0.146 |
| AGTATACT | 0.0859 |
| CACCGGGA | -0.1 |
| ATTAGAAA | 0.0663 |
| ACGCCGAT | -0.186 |
| GAGCGTAA | -0.0937 |
| AGCCAACT | -0.159 |
| AACTGATT | 0.00683 |
| GGAAGACC | 0.0824 |
| AGCGTAAC | 0.199 |

| Sequence | PBM E-score |
| --- | --- |
| GACGAGTC | -0.169 |
| CCGTTACG | -0.111 |
| AAAGTTGG | 0.00901 |
| GGTGCCAC | -0.0258 |
| TAATGATA | 0.157 |
| AAAATGAT | 0.181 |
| ACGCTCTA | -0.245 |
| CTTTCCCA | 0.0569 |
| CGCTGCGA | -0.0742 |
| AGCGCAAG | -0.108 |
| AGTGGGTC | 0.0712 |
| CTCCGTCA | -0.0988 |
| AGGCACCT | -0.0554 |
| AGGTTGCC | 0.088 |
| AATCTGCT | -0.108 |
| CTCAATCA | 0.0704 |
| CCTGGCCC | -0.0746 |
| CTAAGTAA | -0.0123 |
| ACGTAACG | -0.248 |
| CCTGCCAC | -0.114 |
| TCCGACAA | -0.0579 |
| TCAAAACA | 0.091 |
| CTTTTCGC | 0.124 |
| AATTTGTC | -0.0308 |
| ATGCTCTA | -0.192 |

| Sequence | PBM E-score |
| --- | --- |
| CGGGTGAG | -0.28 |
| TATAAGAA | 0.0502 |
| GAATGAAA | 0.112 |
| CTTATAAG | -0.0614 |
| CGGTGTCA | -0.00368 |
| ACTAGATG | -0.0116 |
| AAAGCTCC | -0.205 |
| AACACTCC | -0.112 |
| CCCCGGCG | -0.277 |
| ACCCGCTG | 0.0639 |
| AACGGGTG | 0.0873 |
| CTCCGACC | -0.179 |
| CAACTCCG | -0.123 |
| AGCTAAGC | -0.0524 |
| CTCTTGCC | -0.141 |
| AACGTAGA | -0.0363 |
| ATCCGCAA | 0.0226 |
| TCACTCAA | -0.0396 |
| AAACGGGC | -0.141 |
| GCTTACCC | -0.0481 |
| AAGTATGC | -0.251 |
| ATATTTCG | 0.202 |
| ATGCCGTC | -0.169 |
| GCTTAATA | 0.0843 |
| ATGGTCTG | 0.00818 |

| Sequence | PBM E-score |
| --- | --- |
| CATTCGAA | 0.0609 |
| ATTCGTTG | -0.00472 |
| GATGGGAC | -0.22 |
| GATGTAAC | 0.0633 |
| CGGGAGCC | -0.273 |
| CCTGTCCG | -0.00022 |
| CCTGCTTC | -0.275 |
| CATATGCA | -0.129 |
| GTGCAAAC | -0.106 |
| GGAAGGCC | -0.0868 |
| ACCCAAAG | 0.271 |
| GTGTAGCA | -0.201 |
| AGCTTAGA | -0.0413 |
| AGGTGATA | 0.0812 |
| CGTCAACA | -0.0717 |
| CAAGAGTG | 0.0351 |
| AGCTTACT | -0.0542 |
| TACGAAGA | -0.129 |
| AAGGCAGC | -0.224 |
| ACATATTG | 0.00055 |
| CACCCGGG | 0.129 |
| CCAGAAAG | 0.0214 |
| CAGCAACA | 0.0517 |
| ATCAATCG | 0.0405 |
| CCGGGCAC | -0.145 |

| Sequence | PBM E-score |
| --- | --- |
| AGGCACCC | -0.0486 |
| CGATGGTC | -0.0594 |
| CCTTGTAG | 0.0628 |
| ATTCGGAG | -0.00596 |
| CATAATGA | 0.0451 |
| GGGCCCGA | -0.064 |
| GAAGTCAC | -0.296 |
| CTCTCAAG | -0.137 |
| ATTGTGCA | 0.0088 |
| TATTTACA | 0.0342 |
| CTCCCCCC | -0.372 |
| ATCGACTG | -0.183 |
| AGCTCTTC | -0.123 |
| AAGACAAT | -0.0607 |
| CCTTCTAC | -0.0634 |
| AATGTACG | -0.0399 |
| AGTATAGA | 0.0656 |
| ACAGTTCC | 0.0671 |
| GTGCTTCA | 0.0767 |
| CGCGGCCG | 0.065 |
| ACGCCCCA | -0.0338 |
| CTTCTTGC | -0.0598 |
| GGGAAGCA | -0.19 |
| ACACTGGC | -0.0599 |
| CGCCAGCC | -0.136 |

| Sequence | PBM E-score |
| --- | --- |
| CGGCGGAC | 0.0131 |
| CGTTCCAG | -0.114 |
| TACAGAGA | -0.152 |
| CCAGAGAA | -0.0696 |
| GCAACTGC | -0.207 |
| ACTTGGGG | 0.0677 |
| AATGCCCA | -0.0715 |
| GCCCATTA | -0.0354 |
| ATCTCGGC | 0.0552 |
| GACAAACC | 0.124 |
| CAAAAAAC | 0.277 |
| ACAATAAG | 0.114 |
| GATCCACA | -0.117 |
| TGCCGGAA | 0.0388 |
| AAATTCCG | 0.0247 |
| GCTGTTTA | 0.104 |
| ACACTATC | -0.0374 |
| GACGACTA | -0.19 |
| TCACACCA | 0.0411 |
| CAGAATGC | -0.126 |
| CCTCTCCA | -0.209 |
| AGCCGGTC | -0.176 |
